# Over roughly 33,000 sequences, “E-score (-0.5 to 0.5)” has its median near -0.032; the highest 2% begin near 0.36. This is one part of the list.
# Molecular target: T1, Sko1 (UniProt Q02100)
# T1 sequence: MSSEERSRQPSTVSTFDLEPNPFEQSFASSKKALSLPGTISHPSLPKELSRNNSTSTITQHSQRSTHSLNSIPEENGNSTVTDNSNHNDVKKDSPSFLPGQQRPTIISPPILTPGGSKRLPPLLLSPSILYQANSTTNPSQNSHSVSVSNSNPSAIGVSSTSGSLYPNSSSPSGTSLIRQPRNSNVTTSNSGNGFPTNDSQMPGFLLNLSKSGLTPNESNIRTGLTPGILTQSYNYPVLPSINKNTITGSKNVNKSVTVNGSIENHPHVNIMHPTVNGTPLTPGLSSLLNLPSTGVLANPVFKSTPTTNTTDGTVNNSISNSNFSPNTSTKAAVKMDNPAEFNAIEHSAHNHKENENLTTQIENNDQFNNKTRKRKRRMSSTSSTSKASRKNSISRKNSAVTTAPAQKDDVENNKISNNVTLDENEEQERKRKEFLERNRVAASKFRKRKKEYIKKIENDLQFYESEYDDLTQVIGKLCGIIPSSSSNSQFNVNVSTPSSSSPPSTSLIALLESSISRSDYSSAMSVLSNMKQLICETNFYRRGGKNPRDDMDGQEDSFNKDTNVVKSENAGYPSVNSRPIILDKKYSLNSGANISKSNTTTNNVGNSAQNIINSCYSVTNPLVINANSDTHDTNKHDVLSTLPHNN
# Assay: PBM E-score (8-mer binding enrichment) (E-score (-0.5 to 0.5)); higher = stronger / more preferred TF binding; most listed sequences are background and not binding sites
# Details: protein concentration: 200 nM; construct: GST-full length
# Protocol: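 Universal 'all 10-mer' protein binding microarrays (Agilent AMADID 015681) probed with GST-tagged S. cerevisiae TFs (full-length or DBD) made by in vitro transcription/translation (PURExpress), about 100-200 nM. Bound TF was detected with fluorescent anti-GST. Each ungapped 8-mer (which stands for itself and its reverse complement) is scored by the PBM enrichment score (E-score), a modified Wilcoxon-Mann-Whitney statistic from -0.5 to +0.5, computed with the Universal PBM Analysis Suite. Scale: above 0.35 generally sequence-specific binding.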
row,Sequence,PBM E-score
1,CTTAGTCC,-0.141
2,CGTGTGGA,0.00704
3,TAGCCGAA,0.0251
4,TACCGCTA,-0.0889
5,AGACACTC,-0.109
6,AGAACCGC,0.0875
7,CAGTAATG,0.133
8,GTCGCCGA,-0.0463
9,GCAGTAAC,0.0218
10,AACCCGTC,-0.00481
11,ATACTCTA,0.0678
12,AAAAACTA,0.232
13,GAGACACA,-0.039
14,ACTTCAAC,0.0487
15,AGCGACAG,-0.155
16,AGCATGGA,-0.15
17,CAAAATAG,-0.0965
18,AAAAGTCT,-0.0141
19,CATCAAGA,0.0814
20,AACGTAAC,0.441
21,TGAATACA,0.132
22,ACTCCCTG,-0.158
23,GGGGGCAA,-0.094
24,CAGACCTC,-0.14
25,AAGTCGTA,0.233

row,Sequence,PBM E-score
1,ATATATCG,0.149
2,CAGGGCAA,-0.11
3,AGTCAACA,0.0814
4,GTACAATA,0.323
5,TACGGCGA,-0.11
6,GGCGGCGA,-0.165
7,AGAGCATC,-0.0889
8,CCTATAAC,-0.00903
9,CCGAGTAC,-0.0735
10,ACTTGGCT,-0.248
11,AGCTATTC,0.0128
12,CACCCGAG,-0.211
13,GGCGCTCA,-0.222
14,CTAACAGA,-0.00958
15,GATCTCCC,-0.337
16,ATGCAGTC,-0.107
17,ACAACAAT,-0.0368
18,AATAAAGG,-0.156
19,TGAGTTAA,0.191
20,AGCTCCTG,-0.188
21,AGAAGCCG,-0.142
22,CCCAAGAG,-0.276
23,AGGGCACC,-0.283
24,GTGGTGTA,0.109
25,AGCGACTC,-0.155

row,Sequence,PBM E-score
1,GCTAGTCA,-0.0064
2,CGCAGAGA,-0.0897
3,GGTGAAAA,-0.0427
4,AATAAATA,0.344
5,GGGCCGGA,-0.212
6,GGTGCAAA,-0.21
7,ACCAGACG,0.154
8,ATACCAGA,-0.0271
9,AATCAGGC,0.0204
10,GTTAAAGA,0.0721
11,CAGTAGCA,-0.201
12,ACCCTCCT,-0.203
13,GATTGAGC,0.0464
14,ACGTACGA,0.414
15,CAGCCGTA,-0.199
16,ATGGCGAG,-0.0155
17,AGCCCGTG,-0.337
18,CACGATGA,0.166
19,AGTATGGA,0.0149
20,ACGTGTCC,0.318
21,AGTTATCC,-0.051
22,TGCGGGAA,-0.0903
23,CTAGCTGA,-0.0288
24,AGTAAGAA,0.0814
25,AAGAGAAA,-0.03

row,Sequence,PBM E-score
1,GCTCAACC,-0.187
2,GAAATTGA,0.0914
3,AAAGCACG,0.196
4,CGAAAGGA,0.0147
5,CACCCCCA,-0.195
6,GCATTCTA,0.00058
7,AAGACCTG,-0.147
8,AAAGCGAG,-0.0306
9,GCGTGGGA,0.0177
10,CCAAACAC,0.0445
11,AACCGCTG,-0.182
12,AATACCAG,-0.0482
13,TGTCCTAA,0.0458
14,AAATACCA,0.064
15,GAAGCTAC,-0.0154
16,AACACAAC,0.146
17,AAAGCAAT,0.0661
18,GGCTTACA,-0.0747
19,AAGGGACA,-0.167
20,TACGTATA,0.483
21,GGATGGCA,-0.13
22,AGAGTATC,-0.0677
23,GGGGCGAA,-0.085
24,ACTGTGCG,0.0766
25,ATTGTGTG,0.0446

row,Sequence,PBM E-score
1,ACCTCCGA,-0.202
2,GCCCTCCA,-0.279
3,CCATTACG,0.438
4,ATCTACCC,0.0564
5,AGGTTTTG,-0.0965
6,CCCACACG,0.0941
7,CACCCCCG,-0.0715
8,ACCGGTGA,-0.162
9,ACAACTCT,0.054
10,ACAACTGA,0.0766
11,AGATCAAC,0.157
12,AGGTACCA,-0.0384
13,CATACTAG,0.159
14,ATGTTGCG,0.259
15,ATCTAAGC,-0.0874
16,CCTGTATC,-0.11
17,ATCCAACA,0.0619
18,GCCGAGTA,-0.209
19,AAGGGAAA,-0.116
20,CCGAAGCG,-0.231
21,ACGAGGCC,-0.213
22,ATGGTGTG,0.0906
23,ACTTCCAC,-0.0156
24,GCTTTCAC,-0.0447
25,AACGGGGG,-0.216

row,Sequence,PBM E-score
1,ACGCGAGT,0.14
2,AGATATAG,0.0612
3,AGGTCTAG,0.00053
4,GGTCGACA,-0.0784
5,CATAGCAG,-0.12
6,ACGAGCTC,-0.0251
7,GATACCAC,0.0215
8,TGTCTGAA,0.0157
9,GGGATACC,-0.283
10,ATAGTGTA,0.0563
11,CACAAGAA,0.129
12,AGGATGGG,-0.164
13,AGTTTTCA,-0.0442
14,AAGCTTCT,-0.0252
15,AAGCAAAC,0.135
16,AGTAACCG,0.0181
17,CGTTGGAA,0.115
18,AACATTGC,-0.044
19,CCTCCCCA,-0.178
20,AACTCAGC,-0.207
21,CGTAGGGA,0.266
22,CAATGAAA,0.0377
23,ACCATTCC,-0.182
24,ACGGACAG,-0.0519
25,AAAGAACG,0.143

row,Sequence,PBM E-score
1,CTTTGTAA,0.241
2,AGCAAGGG,-0.159
3,GAGCCGGA,-0.308
4,AACGTACC,0.223
5,CGCACATC,0.133
6,CTCTCGTC,0.0626
7,AAGGAACA,0.0249
8,AATGGCCG,-0.0508
9,ATATCGTG,0.132
10,GAAGTGCC,-0.102
11,GGGATTAC,0.196
12,ATTCGGCC,-0.263
13,GTCATCCA,0.33
14,TATGCATA,0.117
15,ACTTTCCA,0.108
16,CATTTAGA,0.0163
17,CTCAGAGA,-0.223
18,TGGTTAAA,0.139
19,GTGAATAA,0.256
20,AGGACCCT,-0.181
21,CGTAAAAA,0.333
22,AGACACAA,0.101

# From the supplement of paper PMC3334620
